Measured values reported in article PMC4336329 (PLoS ONE, 2015).
The campaign covered roughly 310,000 compounds. About 2,200 (0.71%) showed an effect of 50% or more. The effect is printed as a negative number. Some of the results follow.

molecular target: human ether-à-go-go-related gene (hERG) potassium channel (human, UniProt Q12809); assay: primary screen, population patch clamp on CHO cells stably expressing hERG
Sequence (Q12809 whole entry, looked up): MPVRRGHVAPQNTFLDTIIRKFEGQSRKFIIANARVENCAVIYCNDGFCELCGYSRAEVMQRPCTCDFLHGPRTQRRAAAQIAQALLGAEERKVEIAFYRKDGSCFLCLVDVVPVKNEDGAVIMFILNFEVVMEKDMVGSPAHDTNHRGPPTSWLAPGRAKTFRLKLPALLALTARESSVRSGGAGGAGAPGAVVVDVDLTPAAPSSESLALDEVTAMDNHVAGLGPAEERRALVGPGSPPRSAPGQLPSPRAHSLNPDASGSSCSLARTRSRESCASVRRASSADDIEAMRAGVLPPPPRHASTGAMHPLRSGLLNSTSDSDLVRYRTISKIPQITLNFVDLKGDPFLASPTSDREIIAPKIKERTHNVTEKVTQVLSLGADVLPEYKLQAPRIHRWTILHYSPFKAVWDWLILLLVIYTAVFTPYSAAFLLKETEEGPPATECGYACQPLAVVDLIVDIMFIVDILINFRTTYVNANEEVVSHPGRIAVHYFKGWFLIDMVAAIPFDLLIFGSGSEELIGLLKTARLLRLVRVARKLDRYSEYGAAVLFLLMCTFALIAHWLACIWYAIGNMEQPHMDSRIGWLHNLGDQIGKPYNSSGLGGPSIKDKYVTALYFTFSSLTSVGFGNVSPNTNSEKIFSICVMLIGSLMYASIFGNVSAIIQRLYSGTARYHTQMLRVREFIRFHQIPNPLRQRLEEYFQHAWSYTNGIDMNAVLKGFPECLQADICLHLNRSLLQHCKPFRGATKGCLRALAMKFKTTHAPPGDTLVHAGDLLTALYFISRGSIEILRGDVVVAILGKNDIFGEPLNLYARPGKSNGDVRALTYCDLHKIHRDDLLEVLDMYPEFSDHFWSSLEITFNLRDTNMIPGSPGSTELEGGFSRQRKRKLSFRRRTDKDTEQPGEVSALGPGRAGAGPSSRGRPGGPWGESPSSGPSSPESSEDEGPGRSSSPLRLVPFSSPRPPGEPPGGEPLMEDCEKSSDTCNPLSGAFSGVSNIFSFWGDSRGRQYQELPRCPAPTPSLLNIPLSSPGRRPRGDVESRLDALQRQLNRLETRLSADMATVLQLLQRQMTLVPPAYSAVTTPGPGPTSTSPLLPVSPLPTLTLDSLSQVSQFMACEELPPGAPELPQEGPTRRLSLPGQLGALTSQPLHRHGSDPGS

SMILES	hERG current change (%, negative = inhibition) at 1uM
COc1ccc(NC(=O)CSc2nccn2-c2cccc(OC)c2)cc1	10.3%
Cc1ccc(S(=O)(=O)Nc2nc3ccccc3s2)cc1[N+](=O)[O-]	1.5%
N/C(=N\OC(=O)CCC1CCCCC1)c1cccnc1	5.19%
COc1ccc(OC)c(N(CC(=O)NCc2cccnc2)S(C)(=O)=O)c1	7.2%
Cc1cc(C)c(NC(=O)COC(=O)CSc2ccc(Br)cc2C)c(C)c1	3.66%
Cc1c(NC(=O)c2cc3nc(-c4ccc(Br)cc4)cc(C(F)(F)F)n3n2)c(=O)n(-c2ccccc2)n1C	-3.99%
O=C(CC(n1cncn1)C(Cl)(Cl)Cl)c1ccc([N+](=O)[O-])cc1 (centres unmarked)	-14.3%
COc1ccc(NC(=O)C(C)NS(=O)(=O)c2ccc(NC(C)=O)cc2)cc1Cl (centres unmarked)	3.36%
Cc1ccc2cc(CN(Cc3ccco3)S(=O)(=O)c3c(C)ccc4nsnc34)c(=O)[nH]c2c1	9.99%
CCN(CC)C(=S)SCC(=O)c1ccc(F)cc1	8.42%
Nc1nonc1-n1nnc(C(=O)N/N=C/c2ccc(OCc3ccccc3)cc2)c1CNc1ccccc1	10.1%
O=C(NCc1ccc(F)cc1)c1nc(-c2cccs2)no1	6.56%
Cn1cc(CN(Cc2ccccc2)C[C@@H]2CCC(=O)N2)c(-c2ccccc2F)n1	0.0302%
O=c1[nH]cc(C(F)(F)F)cc1NS(=O)(=O)c1ccccc1[N+](=O)[O-]	-0.0558%
CCC(C)C(=O)Nc1nccs1 (centres unmarked)	16.4%
O=C(CCCCC(=O)NCc1cccs1)NCc1cccs1	11.4%
C=CCn1c(SCC(=O)NC(N)=O)nnc1-c1cc2c(s1)CCC(CC)C2 (centres unmarked)	4.36%
COc1cccc(/C=C/C(=O)Nc2ccc3c(c2)OCCO3)c1	8.79%
O=S(=O)(NCCCCCNS(=O)(=O)c1ccc(F)cc1)c1ccc(F)cc1	8.17%
CC1(C)CC2(C)OCCN2C(=S)N1 (centres unmarked)	5.78%
CCOc1ccc(-c2noc(CCCC(=O)NC3CCCC3)n2)cc1OC	18.4%
CCn1c(SCC(=O)N2CCCCC2C)nc2ccsc2c1=O (centres unmarked)	4.89%
COc1ccc(Nc2c3c(nc4ccc(C)cc24)CCC3)cc1.Cl	-26.3%

SMILES	hERG current change (%, negative = inhibition) at 1uM
CCOc1ccc(C2=NNC(c3cccs3)=Nc3ccc(OCC)cc32)cc1	21.9%
Cc1nc(SCC(=O)Nc2ccc(C)c(F)c2)c2oc3ccccc3c2n1	5.17%
C=CCn1c(=NC(=O)c2cccc(N3C(=O)CCC3=O)c2)sc2cccc(OC)c21	3.05%
Cl.O=C(COc1ccc(F)cc1)NCCN1CCCC1	6.62%
CCCN1CCC(=O)N([C@H](CSc2ccc(Br)cc2)c2ccccc2)CC1	-17.5%
Cl.N=c1n(Cc2ccc(Cl)cc2)c2ccccc2n1CC(O)c1ccco1 (centres unmarked)	-39.2%
CC1CCN(Cc2cc(=O)oc3cc4c(cc23)CCCC4)CC1	16.4%
COc1ccc(-c2nc3ncccc3n2O)cc1	14%
O=C(CNC(=O)c1sc2ccccc2c1Cl)Nc1ccccc1F	4.22%
COc1ccc(N=C(N)N=C(N)N)c(OC)c1	15.3%
COCCN(C(=O)COC(=O)c1ccc(C)o1)c1c(N)n(Cc2ccccc2)c(=O)[nH]c1=O	19.2%
Cc1ccc(C(C(=O)NC2CCCCC2)N2CCCC2)cc1 (centres unmarked)	0.227%
O=C(c1cc(-c2cccc(O)c2)on1)N1CCc2ccccc2C1	-3.92%
CN(C)c1ccc(Nc2nc(N)c3ccccc3n2)cc1.Cl	-0.952%
COc1ccccc1NC(=O)C1CCN(C(=O)C2CC(=O)N(c3ccc(C)cc3)C2)CC1 (centres unmarked)	10.9%
COc1ccc(CC(=O)N2CCC(n3nccc3NC(=O)C3CC3)CC2)cc1	13.3%
C(=N\Nc1nc2ccccc2[nH]1)/c1cccc2cccnc12	7.94%
O=C(NCc1cccnc1)NC1(C(F)(F)F)Oc2ccccc2O1	-5.46%
O=C1CC(=O)CC(c2ccccc2)C1	9.21%
CCN(C(=O)c1cn(C)c(=O)c2ccccc12)c1ccccc1F	3.64%
COC(=O)c1ccc(CN2CCN(CC=C(C)C)C(CCO)C2)cc1 (centres unmarked)	2.91%
COc1cccc(N2CCN(c3ccc4nnc(CCC(=O)Nc5ccccc5OC)n4n3)CC2)c1	-1.06%
O=C(NCc1cccc(C(F)(F)F)c1)C1CC(c2c(Cl)cccc2Cl)=NO1 (centres unmarked)	0.493%

SMILES	hERG current change (%, negative = inhibition) at 1uM
COc1ccc(CNC(=O)/C=C/C(=O)O)cc1OC	-5.68%
CCOC(=O)CSc1n[nH]c(NC(=O)c2ccccc2)n1	8.7%
O=C(COC(=O)c1ccccc1Br)NC1CCCC1	26.6%
COc1ccc(-c2nn(CCC#N)cc2C(=O)NCc2ccccc2)cc1[N+](=O)[O-]	-25%
Cn1c(=O)c([N+](=O)[O-])c(N2CCN(Cc3ccc4c(c3)OCO4)CC2)c2ccccc21	12.7%
COc1ccc(C(=O)NCCS(=O)(=O)NCC2CCCO2)cc1 (centres unmarked)	16.1%
Cc1cc(NC(=O)CSc2nc(C(C)C)nc3sc4c(c23)CCCC4)no1	15.1%
O=C(CCCN1C(=O)c2ccccc2C1=O)N1CCc2ccccc2C1	-3.63%
CCOc1ccccc1N1CCN(C(=O)CCCN2C(=O)c3cccc4cccc(c34)C2=O)CC1	2.15%
O=C1c2ccccc2NC2(CCCCC2)N1N=C1CCCCC1	13.6%
COc1ccc(S(=O)(=O)N2CCC(C(=O)NC3CC3)CC2)cc1OC	-9.17%
CCC(C)C(NC(=O)[C@@H](NC(=O)c1ccccc1F)C(C)C)C(=O)OC (some centres unmarked)	10.6%
N#Cc1c(/N=C/c2ccccc2)oc(-c2ccccc2)c1-c1ccccc1	16.5%
Cn1c(SCC(=O)Nc2ccc(Cl)cn2)nnc1C1CC1	6.99%
CCOC(=O)c1ccc(Nc2ncnc3ccccc23)cc1.Cl	8.61%
Cc1ccc(CN2CCN(c3ccccc3Cl)CC2)o1	3.56%
CCc1ccc(NC(=O)NCC2CCN(Cc3cccc(Cl)c3)CC2)cc1	-36.7%
CCOCC(=O)NC1CCSC1=O (centres unmarked)	22.7%
O=C(c1ccc(CNS(=O)(=O)c2cccc(C(F)(F)F)c2)cc1)N1CCOCC1	0.595%
Cc1occc1C(=O)NNC(=O)c1ccc(S(=O)(=O)N(C)C)cc1	6.96%
Cc1ccc(-c2nc3cccnc3o2)cc1NC(=O)COc1ccc(Cl)cc1C	13.4%
Cn1c(=O)n(C)c2cc(NC(=O)Cc3ccccc3[N+](=O)[O-])ccc21	11.8%
O=C(O)C(=O)O.O=C(c1cccs1)N1CCN(CCCc2ccccc2)CC1	-47.1%

SMILES	hERG current change (%, negative = inhibition) at 1uM
CCN1C(=O)c2ccccc2S(=O)c2ccc(C(=O)NCc3ccccn3)cc21 (centres unmarked)	8.38%
O=C(NC(=S)Nc1ccc2c(c1)OCCO2)c1cccc(Br)c1	3.4%
COc1ccc(/C=C/c2c([N+](=O)[O-])c(=O)n(C)c(=O)n2C)c(OC)c1OC	5.83%
O=C(/C=C/Nc1cccc(F)c1)c1ccco1	9.64%
Cc1nc(N2CCCCC2)sc1C(=O)c1cccc([N+](=O)[O-])c1	7.77%
Clc1ccccc1-c1nc(-c2ccccc2)n[nH]1	-0.0945%
Cc1ccc(/C=C2/N=C(c3ccccc3)NNC2=O)cc1	3.02%
CCOC(=O)N1CCN(C(=O)c2cccc(S(=O)(=O)Nc3ccccc3Cl)c2)CC1	30.7%
CC(=O)NS(=O)(=O)c1ccc(NC(=O)CSc2ccc(Cl)cc2)cc1	4.63%
CCCn1cc(C(=O)OCC)c(=O)c2cc(F)c(F)cc21	11.4%
CCCCc1n[nH]c2c1/C(=N/OCC)CC(C)(C)C2	16.1%
Cc1ccccc1N1CC(C(=O)NC2CCCC2)CC1=O (centres unmarked)	13%
Cc1cccc(-c2nnc(NC(=O)c3ccc(N4C(=O)CCC4=O)cc3)s2)c1	14.6%
CCOC(=O)C1CCCN(C(=O)c2ccc3oc(CCc4ccccc4)nc3c2)C1 (centres unmarked)	8.66%
COc1ccccc1-c1nc(C(F)(F)F)c(OC)o1	-1.13%
c1ccc(-n2ncc3c2ncn2cnnc32)cc1	13.1%
c1ccc(-c2nnnc3ccccc23)cc1	13.1%
O=C1N(Cc2cccc(Cl)c2)C[C@@H]2C[C@@H](c3ccsc3)N3CCC[C@@]123	-6.04%
C=CC1=C(C(=O)O)N2C(=O)[C@@H](NC(=O)/C(=N/OCC(=O)O)c3csc(N)n3)[C@H]2SC1.O	18.1%
COC(=O)c1cc(=O)n(Cc2ccco2)c(=Nc2ccc(F)c(Cl)c2)s1	-6.63%
